The test concerns the target T1, recombinant His-tagged FGF12 (UniProt P61328).
T1 sequence: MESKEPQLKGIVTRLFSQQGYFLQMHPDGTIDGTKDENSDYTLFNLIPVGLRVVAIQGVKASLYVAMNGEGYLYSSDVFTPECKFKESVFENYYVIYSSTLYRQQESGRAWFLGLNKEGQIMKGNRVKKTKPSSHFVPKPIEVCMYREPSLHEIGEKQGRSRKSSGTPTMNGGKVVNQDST
Description: pull-down; recombinant FGF12-His or FGF12Δ-His bound to Ni Sepharose (1 h, 4 °C), incubated with U2OS cell lysate (0.15 M KCl, 40 mM Tris, 1% NP-40, 1 mM EDTA, pH 7.2) overnight at 4 °C; western blotting; also with nuclease-treated lysate (no effect); only the target purified.

Amino acid sequences for entries named in this document (tags omitted).
UniProt Q9NYF8: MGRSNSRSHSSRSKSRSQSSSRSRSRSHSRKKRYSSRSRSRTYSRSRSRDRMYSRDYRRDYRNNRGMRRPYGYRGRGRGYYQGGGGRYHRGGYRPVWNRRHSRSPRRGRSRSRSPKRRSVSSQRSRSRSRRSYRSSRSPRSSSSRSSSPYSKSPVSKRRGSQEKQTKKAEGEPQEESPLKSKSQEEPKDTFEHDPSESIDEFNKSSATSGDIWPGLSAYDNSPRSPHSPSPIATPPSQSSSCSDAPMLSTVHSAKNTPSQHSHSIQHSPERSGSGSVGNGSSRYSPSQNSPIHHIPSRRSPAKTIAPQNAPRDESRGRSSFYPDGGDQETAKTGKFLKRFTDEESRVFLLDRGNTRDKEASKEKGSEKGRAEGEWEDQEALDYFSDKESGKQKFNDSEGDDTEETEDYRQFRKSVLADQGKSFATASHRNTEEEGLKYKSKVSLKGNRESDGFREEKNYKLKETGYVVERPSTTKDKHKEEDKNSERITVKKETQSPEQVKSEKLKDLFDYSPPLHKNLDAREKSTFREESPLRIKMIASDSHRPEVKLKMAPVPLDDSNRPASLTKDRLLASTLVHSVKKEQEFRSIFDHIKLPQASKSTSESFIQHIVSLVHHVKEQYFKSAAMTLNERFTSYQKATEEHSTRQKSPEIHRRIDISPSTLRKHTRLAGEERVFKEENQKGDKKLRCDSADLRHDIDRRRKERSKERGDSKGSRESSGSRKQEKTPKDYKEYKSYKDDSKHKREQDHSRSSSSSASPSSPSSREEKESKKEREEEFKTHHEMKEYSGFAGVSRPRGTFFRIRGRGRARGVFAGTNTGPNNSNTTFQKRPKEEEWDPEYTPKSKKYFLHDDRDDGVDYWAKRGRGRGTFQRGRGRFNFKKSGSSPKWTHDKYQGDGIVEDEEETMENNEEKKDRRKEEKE

The record followed here is PMC9677703.

Results are given in words; binding and its absence hold for the method and conditions named. Binding seen in cells or lysates may run through a third protein. Some results given as binding are weak or reduced against the parent protein; the word gives no strength. Tags and fused reporters may be left off the sequences shown.

As to “Bcl-2-associated transcription factor 1 (from UniProt Q9NYF8 1-920)”, the binding result is given as “binds”.
